Reference: publication PMC4336329 (PLoS ONE, 2015)
In all, about 310,000 compounds went through this assay and about 2,200 (0.71%) showed an effect of 50% or more. Effects have a minus sign here. Some of the results follow.

target: human ether-à-go-go-related gene (hERG) potassium channel (human, UniProt Q12809); assay: primary screen, population patch clamp on CHO cells stably expressing hERG
Sequence (Q12809 whole entry, looked up): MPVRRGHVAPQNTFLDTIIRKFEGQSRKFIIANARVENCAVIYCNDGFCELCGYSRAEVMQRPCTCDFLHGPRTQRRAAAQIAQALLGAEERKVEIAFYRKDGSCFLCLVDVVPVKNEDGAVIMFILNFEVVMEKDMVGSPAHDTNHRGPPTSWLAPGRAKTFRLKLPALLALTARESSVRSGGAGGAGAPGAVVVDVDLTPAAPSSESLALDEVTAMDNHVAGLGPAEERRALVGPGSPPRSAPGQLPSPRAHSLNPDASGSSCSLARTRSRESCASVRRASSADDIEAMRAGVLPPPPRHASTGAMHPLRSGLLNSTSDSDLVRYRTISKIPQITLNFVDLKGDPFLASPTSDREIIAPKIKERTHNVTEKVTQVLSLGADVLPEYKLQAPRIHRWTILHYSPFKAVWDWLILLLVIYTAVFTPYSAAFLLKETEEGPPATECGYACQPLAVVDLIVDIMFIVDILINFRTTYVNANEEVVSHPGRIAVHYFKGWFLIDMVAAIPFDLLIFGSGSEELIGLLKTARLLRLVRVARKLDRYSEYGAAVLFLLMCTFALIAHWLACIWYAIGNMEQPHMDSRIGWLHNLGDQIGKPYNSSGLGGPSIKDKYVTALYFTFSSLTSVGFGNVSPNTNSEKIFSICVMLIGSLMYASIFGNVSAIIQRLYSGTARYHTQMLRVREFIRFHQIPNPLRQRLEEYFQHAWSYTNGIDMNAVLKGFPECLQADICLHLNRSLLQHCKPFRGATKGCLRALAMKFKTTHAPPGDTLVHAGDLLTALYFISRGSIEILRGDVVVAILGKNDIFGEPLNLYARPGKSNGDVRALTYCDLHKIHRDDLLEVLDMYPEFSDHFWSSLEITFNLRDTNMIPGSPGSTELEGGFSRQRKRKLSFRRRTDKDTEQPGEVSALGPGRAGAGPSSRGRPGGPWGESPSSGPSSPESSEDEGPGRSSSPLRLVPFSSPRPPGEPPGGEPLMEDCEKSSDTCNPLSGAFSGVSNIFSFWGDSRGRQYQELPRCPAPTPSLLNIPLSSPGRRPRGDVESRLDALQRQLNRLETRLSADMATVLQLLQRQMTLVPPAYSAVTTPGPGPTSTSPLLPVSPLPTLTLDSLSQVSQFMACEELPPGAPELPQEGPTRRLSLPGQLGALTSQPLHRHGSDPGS

Going from `O=C1c2ccccc2C(=O)N1CCCCN(C(=O)c1cc2ccccc2oc1=O)c1ccc(F)cc1F` to `O=C(NCCN1CCCC1)c1ccc2c(c1)N(Cc1ccc(F)cc1)C(=O)c1ccccc1S2=O` (stereo not shown), the “hERG current change (%, negative = inhibition) at 1uM” value rises from 4.87% to 15.2%.

Going from `CCOC(=O)N1CCC(NC(=O)C(Cc2ccccc2)NC(=O)c2ccco2)CC1` (stereo not shown) to `CCOC(=O)C1CCN(C(=O)c2sc3nc(-c4ccccc4)cn3c2C)CC1`, the “hERG current change (%, negative = inhibition) at 1uM” value falls from 5.74% to -8.54%.

First: CC(C)c1ccc(NC(=O)c2csnn2)cc1
Second: CCC(=O)Nc1ccc(Cl)c(NC(=O)c2cccc(OC)c2)c1
The “hERG current change (%, negative = inhibition) at 1uM” value of the first is lower: 7.02% for the first, 12% for the second.

First: CN(C)C(CNc1ncccn1)c1ccccc1 (stereo not shown)
Second: CCc1ccc(C(CNC(=O)c2ccc3c(=O)n(-c4ccccc4F)c(=S)[nH]c3c2)N(C)C)cc1 (stereo not shown)
The “hERG current change (%, negative = inhibition) at 1uM” value of the first is lower: 14.4% for the first, 15% for the second.

Compared with `CN(Cc1ccco1)S(=O)(=O)c1csc(C(N)=O)c1`, `CN(C)S(=O)(=O)c1cccc(C(=O)NCC2CCCO2)c1` (stereo not shown) is lower in “hERG current change (%, negative = inhibition) at 1uM” value: 13.5% for the first, 4.21% for the second.

Compared with `Oc1c(Cl)cc(Cl)cc1CNn1cnnc1`, `Cc1csc(SCC(=O)NCc2cccc(Cl)c2)n1` is lower in “hERG current change (%, negative = inhibition) at 1uM” value: 14.3% for the first, 9.09% for the second.

Compared with `COc1ccc(C(C)(C)C)cc1NC(=O)C1C2C=CC(C2)C1C(=O)O` (stereo not shown), `COc1ccc(CCNC(=O)CN2CCC(C)CC2)cc1OC.O=C(O)C(=O)O` is higher in “hERG current change (%, negative = inhibition) at 1uM” value: 11.6% for the first, 22.7% for the second.

Compared with `Cc1cccc(C(=O)NNC(=O)CCn2nnc3ccccc32)c1`, `COCC(=O)NCc1nc2ccccc2n1Cc1ccccc1F` is lower in “hERG current change (%, negative = inhibition) at 1uM” value: 16.9% for the first, 13% for the second.

Compared with `Cc1[nH]c(=O)[nH]c(=O)c1S(=O)(=O)Nc1ccc(S(N)(=O)=O)cc1`, `CSc1ccc(S(=O)(=O)Nc2ccc(F)cc2)cc1` is lower in “hERG current change (%, negative = inhibition) at 1uM” value: 15.7% for the first, 12.6% for the second.

Going from `COC(=O)c1ccc(Oc2nc3c(c(=O)n(C)c(=O)n3C)n2CCC(C)C)cc1` to `CCC(CC)C(=O)Nc1c2c(nn1-c1ccc(OC)cc1)CS(=O)(=O)C2`, the “hERG current change (%, negative = inhibition) at 1uM” value falls from 9.24% to 4.57%.

Going from `Cl.O=C(NCCNCCO)c1c(O)c2cccc3c2n(c1=O)CCC3` to `O=C(Nc1sc2c(c1C(=O)O)CCC2)c1cccc(Cl)c1`, the “hERG current change (%, negative = inhibition) at 1uM” value rises from -2.57% to 16.3%.

Going from `[O-]/[N+](=C\c1ccccc1)c1ccccc1` to `O=C(N/N=C/c1cccc([N+](=O)[O-])c1)C1CC1c1ccccc1` (stereo not shown), the “hERG current change (%, negative = inhibition) at 1uM” value falls from 13.6% to 0.918%.

Compared with `Cc1ccc(C#CC[N+](C)(C)CC#Cc2ccccc2)cc1.[Br-]`, `Cc1ccc(CCNC(=O)CN2C(=O)COc3ccccc32)cc1` is higher in “hERG current change (%, negative = inhibition) at 1uM” value: -30.4% for the first, -0.587% for the second.

First: Cc1ccc(C(=O)NCC(c2ccco2)N2CCc3ccccc3C2)cc1C (stereo not shown)
Second: CC1CCCC(C)N1CCCNC(=O)c1ccc2c(c1)NC(=O)c1ccccc1S2 (stereo not shown)
The “hERG current change (%, negative = inhibition) at 1uM” value of the first is lower: -5.84% for the first, 19.2% for the second.

Compared with `COc1ccc(-n2c(SC(C)C(=O)N3CCOCC3)nc3ccccc3c2=O)cc1` (stereo not shown), `O=C(Nc1nc2ccccc2[nH]1)c1ccc(S(=O)(=O)N2CCOCC2)cc1` is higher in “hERG current change (%, negative = inhibition) at 1uM” value: 11.9% for the first, 15.2% for the second.

First: CCCOc1cccc(C2/C(=C(\O)c3ccc4c(c3)OCCO4)C(=O)C(=O)N2CCCn2ccnc2)c1 (stereo not shown)
Second: CCn1ccnc1CN(C)Cc1cn(-c2cccc(C)c2)nc1-c1cccc(F)c1
The “hERG current change (%, negative = inhibition) at 1uM” value of the first is higher: 17.9% for the first, 15% for the second.

Compared with `CSc1nc2c(c(=O)n1Cc1ccccc1)SC(C)C2` (stereo not shown), `COC(=O)C1SCC2C(=O)N(Cc3ccccc3)CC(=O)N21` (stereo not shown) is higher in “hERG current change (%, negative = inhibition) at 1uM” value: 2.75% for the first, 14% for the second.

Compared with `CN(CCc1ccccn1)C(=O)CCc1nnc(CCCc2ccccc2)o1`, `O=C1Cc2ccccc2C(=O)N1CCc1ccccc1` is higher in “hERG current change (%, negative = inhibition) at 1uM” value: 4.67% for the first, 4.84% for the second.

Compared with `Cc1nn(-c2ccccc2)c(C)c1/C=N/NC(=O)c1cc(-c2cccs2)[nH]n1`, `Cc1nc2ccccc2cc1C(=O)NCc1ccc(F)cc1` is lower in “hERG current change (%, negative = inhibition) at 1uM” value: 0.783% for the first, -15.8% for the second.

Compared with `O=C(CC(=O)N/N=C/c1c(F)cccc1Cl)NCc1ccccc1`, `CN(Cc1ccccc1)C(=O)COC(=O)c1ccc(Cl)c(N)c1` is lower in “hERG current change (%, negative = inhibition) at 1uM” value: 9.14% for the first, 5.69% for the second.

Going from `Brc1c(OCCOCCn2cncn2)ccc2ccccc12` to `O=C(CCCn1c(SCc2cc(=O)n3ccccc3n2)nc2ccccc2c1=O)NCC1CCCO1` (stereo not shown), the “hERG current change (%, negative = inhibition) at 1uM” value rises from 3.89% to 16.9%.

Going from `c1ccc(-n2nnnc2SCc2cccc3nsnc23)cc1` to `O=C1NC(=NCc2ccccc2)S/C1=C/c1ccc(O)cc1`, the “hERG current change (%, negative = inhibition) at 1uM” value falls from 8.61% to 8.13%.

First: CCNC(=O)[C@H]1O[C@@H](n2cnc3c(N)ncnc32)[C@H](O)[C@@H]1O
Second: COc1ccc(Nc2nccc3c2ncn3C)cc1
The “hERG current change (%, negative = inhibition) at 1uM” value of the first is lower: 11.6% for the first, 14.6% for the second.

Going from `COc1ccc([N+](=O)[O-])cc1-n1cnnn1` to `CC1(C)COC(c2ccc(F)c([N+](=O)[O-])c2)=N1`, the “hERG current change (%, negative = inhibition) at 1uM” value falls from 17.1% to -3.64%.

Going from `O=C(COc1ccc2ccccc2c1)N1CCN(C(=O)c2cccnc2)CC1` to `O=C(Cn1c(NCCO)nc2ccccc21)N1CCN(Cc2ccccc2)CC1`, the “hERG current change (%, negative = inhibition) at 1uM” value rises from -4.88% to 3.72%.

Going from `COc1ccc(/C=C/C(=O)N2CCC(c3ccccc3)C2)cc1` (stereo not shown) to `COc1ccc(/C=N/NC(=O)CN(c2ccc(OC)cc2)S(=O)(=O)c2ccccc2)cc1`, the “hERG current change (%, negative = inhibition) at 1uM” value rises from -6.25% to 8.43%.

Going from `N#C/C(=C\c1ccc[nH]1)C(=O)N1CCCCC1` to `CCOC(=O)C1CCCN(C(=O)COc2ccccc2O)C1` (stereo not shown), the “hERG current change (%, negative = inhibition) at 1uM” value falls from 12.9% to 10%.

First: O=C(COC(=O)c1cc(Cl)ccc1Cl)NC1CCCC1
Second: Cl.O=C(Nc1cccc(Cl)c1)NC1CCN(C2CCCCC2)C1 (stereo not shown)
The “hERG current change (%, negative = inhibition) at 1uM” value of the first is higher: 3.71% for the first, 1.6% for the second.

Compared with `CC(O)CNc1nc2ccccc2n1-c1ncnc2sc3c(c12)CCC3` (stereo not shown), `O=c1c2sc3nc(N4CCOCC4)c4c(c3c2ncn1-c1ccccc1)CCCC4` is higher in “hERG current change (%, negative = inhibition) at 1uM” value: -2.21% for the first, 14.8% for the second.

First: Oc1ccc(/C=N/N2CCN(C3c4ccccc4-c4ccccc43)CC2)cc1
Second: O=C(c1ccccc1-c1nc(-c2ccccc2Cl)no1)N1CCOCC1
The “hERG current change (%, negative = inhibition) at 1uM” value of the first is lower: 6.97% for the first, 9.72% for the second.

Compared with `Cc1ccccc1OCC(=O)Nc1sc2c(c1C#N)CC(C)(C)NC2(C)C`, `Cc1cc(OCC(=O)O)c2cccc(C)c2n1.Cl` is lower in “hERG current change (%, negative = inhibition) at 1uM” value: 13.3% for the first, 11.8% for the second.

First: CC1CC(C)CN(S(=O)(=O)c2ccc(C(=O)Nc3sccc3C(N)=O)cc2)C1 (stereo not shown)
Second: NC(=O)c1ccsc1NC(=O)c1ccc(N2CCCC2=O)cc1
The “hERG current change (%, negative = inhibition) at 1uM” value of the first is higher: 10.2% for the first, 4.14% for the second.

First: O=C(Nc1ccc2c(c1)CCC2)c1cccc(S(=O)(=O)N2CCN(c3ccc(F)cc3)CC2)c1
Second: Cc1c(C(=O)Nc2cc(S(=O)(=O)N3CCOCC3)ccc2N2CCN(C)CC2)oc2ccccc12
The “hERG current change (%, negative = inhibition) at 1uM” value of the first is lower: 3.13% for the first, 15% for the second.

First: COc1ccc(N(CC(=O)N2CCOCC2)S(C)(=O)=O)cc1OC
Second: COc1ccc(CNC(=O)c2ccc(NS(=O)(=O)c3ccc4[nH]c(=O)[nH]c4c3)cc2)cc1OC
The “hERG current change (%, negative = inhibition) at 1uM” value of the first is higher: 12.2% for the first, 5.85% for the second.

Going from `COc1ccccc1N1C(=O)c2cccc3c(C(=O)O)ccc(c23)C1=O` to `O=C(OCc1cccc(F)c1)c1cc2ccccc2cc1O`, the “hERG current change (%, negative = inhibition) at 1uM” value rises from -7.52% to 11.6%.

Compared with `Cc1cc(C(=O)OCC(=O)Nc2cc(S(=O)(=O)N(C)C)ccc2C)c2ccccc2n1`, `CCn1c2ccccc2c2cc(NC(=O)COC(=O)c3cc(S(=O)(=O)N4CCCCC4)ccc3Cl)ccc21` is lower in “hERG current change (%, negative = inhibition) at 1uM” value: 6.52% for the first, 3.03% for the second.

First: Cc1ccc(-c2nnc(SCC(=O)NCC3CCCO3)n2C)cc1 (stereo not shown)
Second: COc1ccc(C)cc1NC(=O)CSc1nnc(-c2ccc(C)cc2)o1
The “hERG current change (%, negative = inhibition) at 1uM” value of the first is lower: 8.33% for the first, 11.1% for the second.

Compared with `Cc1cccc(NC(=O)CCC2CCN(Cc3nccs3)CC2)c1`, `COc1ccc(OCC(=O)Nc2ccc3c(c2)nc(CN2CCCC2)n3C)cc1` is lower in “hERG current change (%, negative = inhibition) at 1uM” value: 6.29% for the first, -0.236% for the second.

Compared with `CC1=NNC(=O)C1Cc1c(Cl)cccc1Cl` (stereo not shown), `CCOC(=O)c1cnn(-c2nc(-c3cccc(F)c3)cs2)c1C(F)(F)F` is lower in “hERG current change (%, negative = inhibition) at 1uM” value: 11.8% for the first, 4.63% for the second.

Compared with `CC(C)(C)C(=O)CSc1nc2c(c(-c3cccs3)c1C#N)CCC2.CCO`, `O=C1CCCN1C(=O)COc1cc(F)ccc1[N+](=O)[O-]` is higher in “hERG current change (%, negative = inhibition) at 1uM” value: 13.3% for the first, 15.4% for the second.

Going from `Cl.O=C(c1ccco1)N(CCCN1CCOCC1)c1nc(-c2ccc(Cl)cc2)cs1` to `Cc1ccc(S(=O)(=O)NC(=O)Nc2ncc3c(n2)CC(c2ccco2)CC3=O)cc1` (stereo not shown), the “hERG current change (%, negative = inhibition) at 1uM” value rises from -5.41% to 3.79%.

Compared with `COCCCNC(=S)N/N=C/c1ccc(N(C)C)cc1`, `COC(=O)C(CCSC)NC(=O)CNS(=O)(=O)c1ccc(F)cc1` (stereo not shown) is lower in “hERG current change (%, negative = inhibition) at 1uM” value: 19.1% for the first, 16.4% for the second.

Going from `Cc1[nH]c2ccc(C(=O)OC(C)C(=O)NC3CCCCC3C)cc2c1C` (stereo not shown) to `CC(=O)c1ccc(S(=O)(=O)N2CCN(C(=O)CSC(=S)N3CCCC3)CC2)cc1`, the “hERG current change (%, negative = inhibition) at 1uM” value falls from 2.83% to -3.92%.

Compared with `CC(=O)Nc1ccc(-c2ccc(NC(C)=O)cc2)cc1`, `O=C(NCCc1c[nH]c2ccccc12)c1ccc(F)cc1F` is lower in “hERG current change (%, negative = inhibition) at 1uM” value: 10.5% for the first, 9.99% for the second.
